Experimental data published in publication PMC4336329 (PLoS ONE, 2015).
The whole screen tested about 310,000 compounds, of which about 14,000 (4.5%) showed an effect of 50% or more. The effect is printed as a negative number. The list shows a part of the results.

Target: human ether-à-go-go-related gene (hERG) potassium channel (human, UniProt Q12809)
Assay: primary screen, population patch clamp on CHO cells stably expressing hERG
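Also: peak tail current of the secondary pulse compared with the same well before compound.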

Sequence of human ether-à-go-go-related gene (hERG) potassium channel (Q12809 whole entry, looked up): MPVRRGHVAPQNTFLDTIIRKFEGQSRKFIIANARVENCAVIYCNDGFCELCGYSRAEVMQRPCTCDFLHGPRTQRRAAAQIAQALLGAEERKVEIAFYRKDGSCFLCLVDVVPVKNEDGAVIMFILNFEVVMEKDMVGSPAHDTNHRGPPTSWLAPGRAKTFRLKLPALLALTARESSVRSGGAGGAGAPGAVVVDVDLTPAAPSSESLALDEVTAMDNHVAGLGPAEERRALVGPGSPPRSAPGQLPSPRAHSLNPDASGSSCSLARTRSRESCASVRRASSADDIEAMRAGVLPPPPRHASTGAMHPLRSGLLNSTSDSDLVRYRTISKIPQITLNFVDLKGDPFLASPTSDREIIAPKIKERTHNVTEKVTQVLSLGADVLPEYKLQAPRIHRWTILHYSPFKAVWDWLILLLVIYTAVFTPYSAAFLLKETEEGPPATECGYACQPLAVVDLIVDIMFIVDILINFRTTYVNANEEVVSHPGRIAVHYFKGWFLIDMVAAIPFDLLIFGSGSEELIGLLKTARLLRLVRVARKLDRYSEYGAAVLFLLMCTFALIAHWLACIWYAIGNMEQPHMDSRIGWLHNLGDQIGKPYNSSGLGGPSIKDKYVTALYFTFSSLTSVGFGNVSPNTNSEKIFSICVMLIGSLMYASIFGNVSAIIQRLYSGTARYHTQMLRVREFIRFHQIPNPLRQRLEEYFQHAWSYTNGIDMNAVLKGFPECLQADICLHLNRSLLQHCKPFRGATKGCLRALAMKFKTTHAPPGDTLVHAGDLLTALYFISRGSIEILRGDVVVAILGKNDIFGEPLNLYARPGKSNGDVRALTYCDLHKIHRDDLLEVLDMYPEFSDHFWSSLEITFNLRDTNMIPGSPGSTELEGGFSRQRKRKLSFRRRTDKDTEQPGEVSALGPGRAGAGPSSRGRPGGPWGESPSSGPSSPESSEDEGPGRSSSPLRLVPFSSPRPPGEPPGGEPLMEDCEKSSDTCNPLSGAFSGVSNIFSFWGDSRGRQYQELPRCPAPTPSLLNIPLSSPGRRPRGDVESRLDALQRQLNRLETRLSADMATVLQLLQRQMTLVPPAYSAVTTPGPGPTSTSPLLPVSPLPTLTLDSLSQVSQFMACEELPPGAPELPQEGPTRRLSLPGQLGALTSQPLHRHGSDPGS

Going from `CCCCNC(=O)/C=C1\Sc2ccccc2NC1=O` to `COc1cccc(CNC(=O)CCn2c(=O)oc3ccccc32)c1`, the “hERG current change (%, negative = inhibition) at 10uM” value falls from 2.9% to -3.37%.

Compared with `CCOP(=O)(c1ccc(N(C)C)cc1)C(O)c1ccc(OC)cc1` (stereo not drawn), `COc1ccc(C(=O)NCCONC(=O)c2ccc(OC)cc2)cc1` is lower in “hERG current change (%, negative = inhibition) at 10uM” value: 6.28% for the first, -4.46% for the second.

Compared with `COc1cccc(NS(=O)(=O)c2cc3c(cc2C)NC(=O)CO3)c1`, `CCC(C)N(C)C1CCN(C(=S)Nc2cccc(OC)c2)CC1` (stereo not drawn) is higher in “hERG current change (%, negative = inhibition) at 10uM” value: -38.7% for the first, 8.14% for the second.

Going from `CCOC(=O)c1ccccc1NC(=O)CSc1nnc(Cc2cccn2C)n1-c1ccc(F)cc1` to `COc1ccccc1C(=O)NCCC(=O)NN1C(=O)NC2(CCCCC2)C1=O`, the “hERG current change (%, negative = inhibition) at 10uM” value rises from -24% to 37.3%.

Compared with `FC(F)(F)c1cc(-c2ccco2)nc(NCc2ccccc2)n1`, `CN(C(=O)/C(N=Nc1cccc(C(F)(F)F)c1)=C(\O)C(F)(F)F)c1ccccc1` is higher in “hERG current change (%, negative = inhibition) at 10uM” value: 0.0568% for the first, 8.8% for the second.

Compared with `COCCNC(=O)C/C(C)=N/NC(=O)C(=O)NC1CCCCC1`, `O=C(CSc1nc2nc[nH]c2c(=O)[nH]1)NC1CCCCC1` is higher in “hERG current change (%, negative = inhibition) at 10uM” value: -13.5% for the first, 6.5% for the second.

First: CCC(CC(C)(C)O)C(=O)NNC(=S)Nc1ccccc1 (stereo not drawn)
Second: O=C(Nc1ccccc1F)NC1CCCc2ccccc21 (stereo not drawn)
The “hERG current change (%, negative = inhibition) at 10uM” value of the first is higher: 5.73% for the first, -0.51% for the second.

Compared with `c1csc(Cn2c(-c3cccs3)nc3ccccc32)c1`, `CCCN1CN(Cc2ccco2)c2nc3ccccc3n2C1` is higher in “hERG current change (%, negative = inhibition) at 10uM” value: -68.6% for the first, -48.8% for the second.

Compared with `CCCN1C(=O)c2cc(C(=O)Nc3ccc(OC)c(OC)c3)ccc2C1Nc1ccc(OC)c(OC)c1` (stereo not drawn), `COc1ccccc1CCC(=O)N1CCC(n2nccc2NC(=O)C2CCOC2)CC1` (stereo not drawn) is higher in “hERG current change (%, negative = inhibition) at 10uM” value: 8.71% for the first, 23.1% for the second.

Going from `Cc1ccc(OCCCCCCN2CCNCC2)cc1.O=C(O)C(=O)O` to `CCN1CCN(C(=O)COc2cc(=O)n(CC)c3ccccc23)CC1`, the “hERG current change (%, negative = inhibition) at 10uM” value rises from -11.6% to -2.67%.

First: CC(=O)Nc1cc(C)c(S(C)(=O)=O)c(C)c1
Second: Cc1cc(Nc2nn(C)c(N)c2C#N)ccc1F
The “hERG current change (%, negative = inhibition) at 10uM” value of the first is higher: 5% for the first, -14.8% for the second.

Going from `Cc1cc(=O)c2ccc(C(F)(F)F)cc2[nH]1` to `CC(C)CC(c1nnnn1Cc1ccc(F)cc1)N1CCC(C(N)=O)CC1` (stereo not drawn), the “hERG current change (%, negative = inhibition) at 10uM” value falls from 15.4% to -7.55%.

Compared with `COC(=O)CN1C(=O)CSc2ncccc21`, `Cc1ccn2c(CNCC3COCCO3)c(C(=O)N3CCCCCC3)nc2c1` (stereo not drawn) is higher in “hERG current change (%, negative = inhibition) at 10uM” value: 0.353% for the first, 7.77% for the second.

With `CC(=O)N(CCN(C)C)c1nc2cc3c(cc2s1)OCCO3.Cl` the “hERG current change (%, negative = inhibition) at 10uM” value was 10.6%.
